# Laboratory results taken from PubChem BioAssay AID1508623 (National Center for Advancing Translational Sciences (NCATS), 2021).
# Among all 48,000 compounds or so, about 450 (0.94%) were called active. Inconclusive results (about 19%) are left out. Calls follow the shape of the dose curve; as a rule, active = well fitted inhibition curve with a large enough effect; inconclusive = small, poorly fitted or top-dose-only effect; inactive = no such curve, though single readings can be large or run the other way. The list shows a part of the results.
# Test: Primary qHTS for Identification of Small Molecule Inhibitors of Huntingtin Promoter Activity; also: nearly all actives have a fitted effect of over 50% in size
# Details: HEK293 HTT promoter firefly luciferase reporter (activity 0% = vehicle and -100% = no light), 24 h; series mostly up to 57.5 µM; activity change, negative = inhibition: at the top concentration
# Description: Assay Provider: Russell L. Margolis M.D.
# Department Neurology, Johns Hopkins University School of Medicine, Baltimore, MD
# Huntington's Disease (HD) is a neurodegenerative disorder caused by a CAG repeat expansion in exon 1 of huntingtin (HTT). While there are currently no disease-modifying treatments for HD, recent efforts have focused on development of nucleotide-based therapeutics to lower HTT expression. As an alternative to siRNA or oligonucleotide methods, we hypothesized that suppression of HTT expression might be accomplished by small molecules that either (1) directly decrease HTT expression by suppressing HTT promoter activity or (2) indirectly decrease HTT expression by increasing the promoter activity of HTT-AS, the gene antisense to HTT that appears to inhibit expression of HTT.
# We developed and employed a high throughput screen for modifiers of HTT and HTT-AS promoter activity using luminescent reporter HEK293 cells; of the 52,041 compounds tested, we identified 898 replicable hits. We used a rigorous stepwise approach to assess compound toxicity and the capacity of the compounds to specifically lower huntingtin protein in 5 different cell lines, including HEK293 cells, HD lymphoblastoid cells, mouse primary neurons, HD iPSCs differentiated into cortical-like neurons, and HD hESCs. We found no compounds which were able to lower huntingtin without lowering cell viability in all assays, though the potential efficacy of a few compounds at non-toxic doses could not be excluded.
# SEQUENCE No. (1, 2, 3, etc.); […] (e.g., Cells, Incubation, Reagent, etc.); VALUE and DESCRIPTION.
# 1; Reagent; 4 uL; 2,500 Hek293 luciferase reporter cells per wells
# 3; Compound; 23 nL; Control inhibitor / compound library
# 5; Reagent; 2.5 uL; Firefly Luc reagent; Dual-Glo Luciferase Reporter Assay System (Promega)
# 6; Time; 10 min; room temperature incubation
# 7; Detection; Luminescence; FLuc
# NOTES (numbers refer to sequence above)
# 1; High-throughput screening, measuring luminescence from a Hek293 luciferase reporter, was performed in 1,536 well white-walled tissue-culture treated plates. 2,500 cells were plated in 4 µL of Opti-MEM per well using a Multidrop Combi Reagent Dispenser (ThermoFisher).
# 2; Assay plates were cultured for 24 hours.
# 3; Control inhibitor (PTC124; final concentration of 50 uM) and compound library (at final concentrations of 460 nM - 57.5 uM) were added to the assay plate using the Kalypsis Pintool Robotic System equipped with 1536 pinheads.
# 4; Cells were then incubated for 24 hours at 37 degrees C prior to luminescence measurements.
# 5; In all cases, luminescence was measured using the Dual-Glo Luciferase Reporter Assay System (Promega) following the manufacturer's instructions.
# 6; Room temperature incubation.
# 7; Luminescence signal was obtained using the PerkinElmer ViewLux plate reader. Results were normalized to vehicle control (0% activity) and zero RLU (-100% activity).
row,Compound,"activity change, negative = inhibition"
1,COc1ccc(CCNC(=O)CS(=O)Cc2nc(-c3ccc(C)cc3)oc2C)c(OC)c1 (stereo not drawn),inactive: -28%
2,O=C(Cn1c(=O)nc(-c2ccccc2)c2ccccc21)NCCCc1ccccc1,inactive: -12.8%
3,CCOc1ccccc1NS(=O)(=O)c1cnc(N)nc1,inactive: 1.21%
4,Nc1ccc(S(=O)(=O)Nc2cnc3ccccc3n2)cc1,inactive: -4.95%
5,CCc1cccc(NCc2ccccc2-c2nnc(-c3ccccc3Cl)o2)c1,inactive: 56.7%
6,CCn1c(CN2CCOCC2)nc2cc(NC(=O)c3cc(OC)c(OC)c(OC)c3)ccc21,inactive: -9.71%
7,CC(=O)c1ccc(NC(=O)C2CCC(CNS(=O)(=O)c3ccc4c(c3)CCCC(=O)N4)CC2)cc1 (stereo not drawn),inactive: -4.34%
8,NCCCC(O)(P(=O)(O)O)P(=O)(O)O,inactive
9,COc1ccc(-c2cc(C(=O)NCc3ccccc3)c3c(-c4ccccc4)[nH]nc3n2)cc1,inactive: -14.1%
10,CC1CCN(C(=O)Cn2ncc3c4ccccc4n(Cc4ccc(Cl)cc4)c3c2=O)CC1,inactive: -12.2%
11,COc1ccccc1N1CCN(C(=O)Cc2c(C(=O)O)c(C)cn2C)CC1,inactive: -13.1%
12,CCCCSCCCNC(=O)C1CCC(CNS(=O)(=O)c2ccccc2)CC1 (stereo not drawn),inactive: -28.7%
13,CCOc1ccc(CCNC(=O)c2ccc3nc(CC)c(CC)nc3c2)cc1,inactive: -19.3%
14,O=C(Nc1ccc(F)cc1F)c1ccc2c(=O)n3c(nc2c1)CCCCC3,inactive: 15%
15,CCOc1ccc(OCC(=O)Nc2c(C(=O)Nc3ccc(C)cc3)oc3ccccc23)cc1,inactive: 0.806%
16,COc1cccc(-n2c(=O)c3sc4ccccc4c3n(CC(=O)Nc3cccc(Cl)c3)c2=O)c1,inactive: -21.4%
17,O=C1C(CCS(=O)c2ccccc2)C(=O)N(c2ccccc2)N1c1ccccc1 (stereo not drawn),inactive: 2.7%
18,O=c1[nH]c(=O)n([C@H]2C[C@@H](O)[C@@H](CO)O2)cc1C=CBr,inactive: -1.74%
19,C=Cc1ccc(Cn2c(=O)n(-c3cccc(C)c3)c(=O)c3c2c2cc(C)ccc2n3C)cc1,inactive: -26.4%
20,CCN(CC)CCCNC(=O)c1ccc2nc(CCc3ccccc3)oc2c1,inactive: 0%
21,Cc1ccc(S(=O)(=O)c2c(C)nn(-c3ccccc3)c2OC(=O)c2ccccc2F)cc1,inactive: -13.9%
22,COC(=O)N[C@H](C(=O)N[C@@H](Cc1ccccc1)[C@@H](O)CN(Cc1ccc(-c2ccccn2)cc1)NC(=O)[C@@H](NC(=O)OC)C(C)(C)C)C(C)(C)C,inactive
23,CCOC(=O)c1ccccc1NC(=O)Cn1c(=O)n(Cc2ccccc2)c(=O)c2c(C)c(C)sc21,inactive: -10.8%
24,O=C1C(c2[nH]c3ccccc3c2O)=Nc2ccccc21,inactive: -4.93%

row,Compound,"activity change, negative = inhibition"
1,CCN(c1ccc(Cl)cc1)S(=O)(=O)c1nnc(NC(=O)C(C)C)s1,inactive: 0.885%
2,Cc1ccc(-n2ncc(C(=O)N3CCN(Cc4ccccc4)CC3)c2C2CCN(C(=O)OC(C)(C)C)CC2)c(C)c1,inactive: -8.78%
3,CC(C)(C)OC(=O)N1CCC(c2c(C(=O)NCc3ccco3)cnn2-c2ccc(F)cc2)CC1,inactive: -22.1%
4,Cc1ccc(C)c(S(=O)(=O)c2nnn3c2nc(NCc2ccc4c(c2)OCO4)c2sccc23)c1,inactive: -1.51%
5,CN(C)c1ccc(NC(=O)Cn2c(SCc3ccccc3F)nc3cccnc32)cc1,inactive: -20.7%
6,COC(=O)Nc1ccc(-c2nc(N3CCOCC3)c3cnn(C4CCN(C(=O)OC)CC4)c3n2)cc1,inactive: -30.8%
7,CN(C)c1ccc(C(CNS(=O)(=O)c2ccc(Br)cc2)N2CCOCC2)cc1 (stereo not drawn),inactive: -15.8%
8,O=c1c2sc3ccccc3c2n(Cc2ccccc2F)c(=O)n1CCc1ccccc1,inactive: 17.5%
9,O=C(c1ccc2c(Cl)c3c(nc2c1)CCCC3)N1CCN(c2cccc(Cl)c2)CC1,inactive: -14.3%
10,CCc1ccc(-c2ccc(C(=O)Oc3ccc(Br)cc3)cc2)nc1,inactive: 6.57%
11,Cc1c(C)n(C)c2ccc(C(=O)NCCCN3CCCCC3)cc12,inactive: -14.9%
12,COc1ccc(NC(=O)C2=C(C)Nc3nc(SCc4ccccc4)nn3C2c2cc(OC)ccc2OC)cc1 (stereo not drawn),inactive: -15.6%
13,Cc1ccc(Cn2ccc(NC(=O)c3cc(-c4ccc(Cl)c(Cl)c4)on3)n2)cc1,inactive: 11.6% [at 11.5 µM]
14,COc1ccc(CNc2ncnc3c2c(-c2ccccc2)cn3-c2ccccc2)cc1,inactive: -22.8%
15,CCN(CC)S(=O)(=O)c1ccc(C(=O)N=c2sc3cccc(OC)c3n2C)cc1,inactive: -8.64%
16,Cc1c(-c2cccc(NC(=O)C(C)(C)C)c2)nc2ncccn12,inactive: 5.46%
17,Cc1ccc(-c2nc(SCc3ccc(Br)cc3)n3[nH]c(=O)cc3n2)cc1,inactive: -8.95%
18,COc1ccccc1CNC(=O)c1cccc(Nc2nc3ccccc3n3nnnc23)c1,inactive: -8.68%
19,Cc1ccc2nc(N3CCN(c4cccc(C)c4C)CC3)c3nnnn3c2c1,inactive: -9.86%
20,CCC1CN(C(=O)N2CCC(C(=O)NCc3cccs3)CC2)c2cc(C)ccc2O1 (stereo not drawn),inactive: -29.6%
21,CCc1cccc(NC(=O)CSc2ncc3c(n2)-c2ccccc2N(Cc2ccccc2C)S3(=O)=O)c1,inactive: -15.3%
22,CCOc1ccc(-c2cc(C(=O)NCc3ccccc3)c3c(-c4ccc(CC)cc4)[nH]nc3n2)cc1,inactive: -8.97%
23,Cc1ccccc1Nc1c2c(nc3nncn13)CCC2,inactive: -22.9%
24,COc1ccc(NC(=O)Cc2csc(C)n2)cc1,inactive: 14.1%
